# The full ranking holds about 1,900 compounds; the median of “cell viability of compound + 1 nM pemigatinib relative to pemigatinib-only (DMSO) wells” is about 0.95, and the lowest 2% start at about 0.22. The list shows a part of the results.
# Tested on: PDC-DUC18828
# Experiment: cell viability of compound + 1 nM pemigatinib relative to pemigatinib-only (DMSO) wells (fraction); PDC-DUC18828 is a patient-derived cholangiocarcinoma cell line; higher = less growth inhibition
# Conditions: first compound 1 µM; pemigatinib concentration 1 nM; 72 h
# Method: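 Selleck Bioactive library screen in the patient-derived FGFR2 fusion-positive ICC cell line PDC-DUC18828 (500 cells/well). Each compound was tested at 1 uM with 1 nM pemigatinib, in triplicate, for 72 h. Viability was read by CellTiter-Glo and normalised to plate DMSO controls. Value is the paper's averaged normalised viability.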
row,SMILES,cell viability
1,Cc1ccc(-n2nc(C(C)(C)C)cc2NC(=O)Nc2ccc(OCCN3CCOCC3)c3ccccc23)cc1 [BIRB 796 (Doramapimod)] + CCN1C(=O)N(c2c(F)c(OC)cc(OC)c2F)Cc2cnc3[nH]c(CN4CCOCC4)cc3c21 [pemigatinib],1.05
2,CCCCCCCCCCCC[N+](C)(C)CCOc1ccccc1 [Domiphen Bromide] + CCN1C(=O)N(c2c(F)c(OC)cc(OC)c2F)Cc2cnc3[nH]c(CN4CCOCC4)cc3c21 [pemigatinib],0.943
3,O=C1NC(=O)C(c2ccccc2)(c2ccccc2)N1 [Phenytoin] + CCN1C(=O)N(c2c(F)c(OC)cc(OC)c2F)Cc2cnc3[nH]c(CN4CCOCC4)cc3c21 [pemigatinib],0.943
4,CC(C)(O)c1ccccc1CC[C@@H](SCC1(CC(=O)O)CC1)c1cccc(/C=C/c2ccc3ccc(Cl)cc3n2)c1 [Montelukast Sodium] + CCN1C(=O)N(c2c(F)c(OC)cc(OC)c2F)Cc2cnc3[nH]c(CN4CCOCC4)cc3c21 [pemigatinib],1.02
5,O=C(Nc1ccccc1)Nc1ccc(-c2ccc(C(=O)[C@@H]3CCC[C@H]3C(=O)O)cc2)cc1 + CCN1C(=O)N(c2c(F)c(OC)cc(OC)c2F)Cc2cnc3[nH]c(CN4CCOCC4)cc3c21 [pemigatinib],1.02
6,CN(C)C/C=C/C(=O)Nc1cc2c(Nc3ccc(F)c(Cl)c3)ncnc2cc1O[C@H]1CCOC1 [Afatinib (BIBW2992) Dimaleate] + CCN1C(=O)N(c2c(F)c(OC)cc(OC)c2F)Cc2cnc3[nH]c(CN4CCOCC4)cc3c21 [pemigatinib],0.726
7,CN(C)C/C=C/C(=O)Nc1cc2c(Nc3ccc(F)c(Cl)c3)ncnc2cc1O[C@H]1CCOC1 [Afatinib (BIBW2992)] + CCN1C(=O)N(c2c(F)c(OC)cc(OC)c2F)Cc2cnc3[nH]c(CN4CCOCC4)cc3c21 [pemigatinib],0.735
8,CCN(CC)CCCC(C)Nc1nc(C)cc(Nc2ccc3nc(C)cc(N)c3c2)n1 (stereo not drawn) + CCN1C(=O)N(c2c(F)c(OC)cc(OC)c2F)Cc2cnc3[nH]c(CN4CCOCC4)cc3c21 [pemigatinib],1.03
9,COc1c(N2CCNC(C)C2)c(F)cc2c(=O)c(C(=O)O)cn(C3CC3)c12 (stereo not drawn) [Gatifloxacin] + CCN1C(=O)N(c2c(F)c(OC)cc(OC)c2F)Cc2cnc3[nH]c(CN4CCOCC4)cc3c21 [pemigatinib],1.01
10,O=C(c1ccccc1)c1ccc2n1CCC2C(=O)O (stereo not drawn) [Ketorolac] + CCN1C(=O)N(c2c(F)c(OC)cc(OC)c2F)Cc2cnc3[nH]c(CN4CCOCC4)cc3c21 [pemigatinib],1.05
11,C#CCC(Cc1cnc2nc(N)nc(N)c2n1)c1ccc(C(=O)N[C@@H](CCC(=O)O)C(=O)O)cc1 (stereo partly drawn) [Pralatrexate] + CCN1C(=O)N(c2c(F)c(OC)cc(OC)c2F)Cc2cnc3[nH]c(CN4CCOCC4)cc3c21 [pemigatinib],0.973
12,O=C(C[S+]([O-])Cc1ccco1)NC/C=C\COc1cc(CN2CCCCC2)ccn1 (stereo not drawn) [Lafutidine] + CCN1C(=O)N(c2c(F)c(OC)cc(OC)c2F)Cc2cnc3[nH]c(CN4CCOCC4)cc3c21 [pemigatinib],0.971
13,CN(C)CC(c1ccc(O)cc1)C1(O)CCCCC1 (stereo not drawn) [Desvenlafaxine Succinate] + CCN1C(=O)N(c2c(F)c(OC)cc(OC)c2F)Cc2cnc3[nH]c(CN4CCOCC4)cc3c21 [pemigatinib],0.942
14,CN(C)CC(c1ccc(O)cc1)C1(O)CCCCC1 (stereo not drawn) [Desvenlafaxine] + CCN1C(=O)N(c2c(F)c(OC)cc(OC)c2F)Cc2cnc3[nH]c(CN4CCOCC4)cc3c21 [pemigatinib],0.909
15,O=C(NOCC(O)CO)c1cc(Br)c(F)c(F)c1Nc1ccc(I)cc1F (stereo not drawn) + CCN1C(=O)N(c2c(F)c(OC)cc(OC)c2F)Cc2cnc3[nH]c(CN4CCOCC4)cc3c21 [pemigatinib],0.814
16,O=C(Nc1ccccc1Br)N[C@@H]1CCN(c2ccc(C(F)(F)F)cn2)C1 + CCN1C(=O)N(c2c(F)c(OC)cc(OC)c2F)Cc2cnc3[nH]c(CN4CCOCC4)cc3c21 [pemigatinib],0.929
17,COc1ccc(S(=O)(=O)N(CCO)c2ccccc2CN(C)C/C=C/c2ccc(Cl)cc2)cc1 [KN-93 Phosphate] + CCN1C(=O)N(c2c(F)c(OC)cc(OC)c2F)Cc2cnc3[nH]c(CN4CCOCC4)cc3c21 [pemigatinib],0.988
18,CCC(=O)Nc1cccc(Oc2nc(Nc3ccc(N4CCN(C)CC4)cc3OC)ncc2Cl)c1 + CCN1C(=O)N(c2c(F)c(OC)cc(OC)c2F)Cc2cnc3[nH]c(CN4CCOCC4)cc3c21 [pemigatinib],0.994
19,C=CC(=O)Nc1cccc(Nc2nc(Nc3ccc(OCCOC)cc3)ncc2F)c1 + CCN1C(=O)N(c2c(F)c(OC)cc(OC)c2F)Cc2cnc3[nH]c(CN4CCOCC4)cc3c21 [pemigatinib],0.715
20,N#Cc1c(NC(=O)c2cccc3ccccc23)sc2c1CCCC2 [JNK Inhibitor IX] + CCN1C(=O)N(c2c(F)c(OC)cc(OC)c2F)Cc2cnc3[nH]c(CN4CCOCC4)cc3c21 [pemigatinib],0.284
21,CCc1c(Cl)c(O)c(Cl)c(O)c1C(=O)O[C@H]1[C@H](O)[C@H](OC)[C@H](OC/C2=C\C=C\C[C@H](O)/C(C)=C/[C@H](CC)[C@@H](O[C@@H]3OC(C)(C)[C@@H](OC(=O)C(C)C)[C@H](O)[C@@H]3O)/C(C)=C/C(C)=C/C[C@@H]([C@@H](C)O)OC2=O)O[C@@H]1C [Fidaxomicin] + CCN1C(=O)N(c2c(F)c(OC)cc(OC)c2F)Cc2cnc3[nH]c(CN4CCOCC4)cc3c21 [pemigatinib],0.92
22,Nc1ccn([C@@H]2CS[C@H](CO)O2)c(=O)n1 [Lamivudine] + CCN1C(=O)N(c2c(F)c(OC)cc(OC)c2F)Cc2cnc3[nH]c(CN4CCOCC4)cc3c21 [pemigatinib],0.972
23,COc1ccccc1OCC(O)COC(N)=O (stereo not drawn) [Methocarbamol] + CCN1C(=O)N(c2c(F)c(OC)cc(OC)c2F)Cc2cnc3[nH]c(CN4CCOCC4)cc3c21 [pemigatinib],1.02

# Source: the supplement of paper PMC9588766
